Test results reported in publication PMC4336329 (PLoS ONE, 2015).
Out of some 310,000 compounds screened, about 2,200 (0.71%) showed an effect of 50% or more. The effect is printed as a negative number. This is one part of the list.

Biological target: human ether-à-go-go-related gene (hERG) potassium channel (human, UniProt Q12809)
Assay: primary screen, population patch clamp on CHO cells stably expressing hERG

Chain of human ether-à-go-go-related gene (hERG) potassium channel (Q12809 whole entry, looked up): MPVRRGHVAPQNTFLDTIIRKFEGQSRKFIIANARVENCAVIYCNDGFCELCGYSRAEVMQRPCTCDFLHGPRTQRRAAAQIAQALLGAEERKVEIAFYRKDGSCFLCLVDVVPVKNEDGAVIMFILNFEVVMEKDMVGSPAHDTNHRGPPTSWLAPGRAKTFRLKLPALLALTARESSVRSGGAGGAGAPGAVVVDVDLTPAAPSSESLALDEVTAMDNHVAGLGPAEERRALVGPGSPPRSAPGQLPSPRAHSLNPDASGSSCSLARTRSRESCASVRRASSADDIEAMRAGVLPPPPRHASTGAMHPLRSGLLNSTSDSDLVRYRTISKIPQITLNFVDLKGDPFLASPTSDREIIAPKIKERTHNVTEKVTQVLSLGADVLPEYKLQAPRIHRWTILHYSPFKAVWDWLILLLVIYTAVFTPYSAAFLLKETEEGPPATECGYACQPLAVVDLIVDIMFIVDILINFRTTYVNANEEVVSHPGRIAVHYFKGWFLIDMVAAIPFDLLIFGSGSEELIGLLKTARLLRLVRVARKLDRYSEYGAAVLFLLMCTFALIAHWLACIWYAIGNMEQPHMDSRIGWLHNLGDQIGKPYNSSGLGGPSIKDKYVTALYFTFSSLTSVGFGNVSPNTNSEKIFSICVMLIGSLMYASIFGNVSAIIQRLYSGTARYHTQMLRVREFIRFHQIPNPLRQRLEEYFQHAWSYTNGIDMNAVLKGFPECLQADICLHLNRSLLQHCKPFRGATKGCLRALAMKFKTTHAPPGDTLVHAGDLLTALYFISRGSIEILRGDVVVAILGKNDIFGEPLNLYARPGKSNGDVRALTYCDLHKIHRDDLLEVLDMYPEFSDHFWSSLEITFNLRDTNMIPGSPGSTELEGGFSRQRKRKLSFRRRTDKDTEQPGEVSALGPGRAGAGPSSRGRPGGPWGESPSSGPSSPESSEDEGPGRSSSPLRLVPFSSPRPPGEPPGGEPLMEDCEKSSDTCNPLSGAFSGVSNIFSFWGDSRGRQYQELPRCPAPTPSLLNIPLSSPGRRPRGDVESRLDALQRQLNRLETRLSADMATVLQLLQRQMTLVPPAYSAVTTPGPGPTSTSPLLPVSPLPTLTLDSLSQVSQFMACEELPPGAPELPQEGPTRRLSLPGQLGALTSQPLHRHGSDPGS

SMILES	hERG current change (%, negative = inhibition) at 1uM [%]
O=C(NCc1ccccc1)NC(=O)c1ccc(Cl)cc1	20
COC(=O)C1=C(c2ccc(OC)c(OC)c2)C[C@@H]2CC[C@H]1N2C(=O)NCc1cccc2ccccc12	6.27
Cc1ccc(OCC(=O)N2CCN(S(C)(=O)=O)CC2)cc1	12.4
Brc1ccc(-[n+]2c(-c3ccccc3)cc(-c3ccccc3)cc2-c2ccccc2)cc1.[O-][Cl+3]([O-])([O-])[O-]	-18.7
CC(=O)O.CC(NO)/C(=N\O)c1cccs1 (stereo not shown)	17.2
O=C(Nc1cccs1)NC1CCCC1	6.67
CCCCCCCNC(=O)c1ccc(N2CCC3(CC2)OCCO3)c([N+](=O)[O-])c1	-1.11
CC(C)c1ccc(NC(=S)NN(c2ccccc2)c2ccccc2)cc1	15
c1ccc([C@@H]2CO2)cc1	18
COc1cccc(/C=C2\CCC(C3CCCC3)C2=O)c1 (stereo not shown)	11.3
COc1ccc(S(N)(=O)=O)cc1C(=O)OCC1CCCCC1	0.182
CC1CCCCC12NC(=O)N(CC(=O)N1CCN(C(=O)c3cccs3)CC1)C2=O (stereo not shown)	3.76
O=C(O)/C=C/C(=O)NCCCc1ccccc1	8.24
CCO/C=C1\C(=O)N(CC)c2ccccc21	5.86
CCC(C(=O)NCc1ccncc1)c1ccccc1 (stereo not shown)	14.8
O=C(CN1CC[n+]2c(-c3cccs3)csc21)c1ccc(-c2ccccc2)cc1.[Br-]	-13.2
O=C(COC(=O)CCCSc1nc2ccccc2[nH]1)Nc1cccc(F)c1	1.63
COc1ccc(CCNC(=O)CSc2ccsc2[N+](=O)[O-])cc1OC	0.368
O=C(Nc1cccc2cccc(NC(=O)c3ccco3)c12)c1ccco1	12.3
Cc1ccc(C2=C(O)c3ccccc3C(=O)C2=O)cc1	12.5
Cc1nc(C)c(-c2csc(Nc3ccc(C(=O)O)c(O)c3)n2)s1	12.2
CCCc1c(O)nc(SCCN(CC)CC)[nH]c1=O.Cl	15.2

SMILES	hERG current change (%, negative = inhibition) at 1uM [%]
Cc1ccc(C(=C2C3C=CC2C2C(=O)NC(=O)C32)c2ccc(C)cc2)cc1 (stereo not shown)	14.5
Cl.N=c1sccn1CC(=O)Nc1ccc(Cl)cc1[N+](=O)[O-]	4.9
O=C(C1=C[C@@H](c2coc3ccccc3c2=O)C[C@@H](OCCCCO)O1)N1CCOCC1	15.5
CC1CCN(C(=S)c2ccc3c(c2)OCO3)CC1	4.69
CN1CCN(C(=O)COc2ccc(S(=O)(=O)N(C)Cc3ccccc3)cc2)CC1	9.21
O=C1c2ccccc2CN1CCSC(=S)N1CCSCC1	8.94
Cc1c(NC(=O)c2nn(C)c(=O)c3ccccc23)c(=O)n(-c2ccccc2)n1C	13.3
Cc1ccc(-c2ccc(S(=O)(=O)Nc3cccnc3)cc2)cc1	8.57
COc1ccc(NC(=O)CNC(=O)c2nn(-c3ccc(OC)c(OC)c3)c(=O)c3ccccc23)c(OC)c1	18.1
CCC(C)Sc1ccc([C@@H]2[C@@H]3C(=O)N(C)C(=O)[C@@H]3[C@]3(C(=O)OC)CCCCN23)cc1.O=C(O)C(F)(F)F (stereo partly shown)	15.5
COc1ccc(COc2cc(-c3cccc(OC)c3)nc3ccc(N)cc23)cc1	10
CC1(C)Nc2ccccc2N(CC(=O)N2CCCCC2)C1=O	10.8
O=C(COC(=O)c1cc([N+](=O)[O-])ccc1N1CCOCC1)c1ccccc1	-8.48
COc1ccc(CSCC(=O)N/N=C/c2ccccc2OCc2ccccc2)cc1	12.8
COc1ccc2c(Cl)c(C(=O)NCCCn3ccnc3)sc2c1Cl	11.4
CCCCCc1cc(=O)oc2c(C(CCN3CCCC(C)C3)c3ccc4c(c3)OCO4)c(OC)cc(OC)c12 (stereo not shown)	9.85
O=C1C(=O)N(CC2CCCO2)C(c2ccco2)/C1=C(/O)c1ccc(F)cc1 (stereo not shown)	-16.1
COc1ccc(CCN2CCCC(CN(C)Cc3cc(OC)ccc3OC)C2)cc1 (stereo not shown)	-10.5
COc1ccc2cc3cc(C(=O)NCCC(C)C)oc3nc2c1	7.3
CCCO/N=C1/C(=O)N(c2ccccc2)c2ccccc21	-0.309
CCc1ccc(OCC(=O)NNC(=S)NC(=O)C2CCCCC2)c(Br)c1	7.86
